Reference: the supplement of paper PMC11417369
This is one part of the list.

tested on: PfSIP2 AP2 domain 1 (GST-tagged); experiment: gcPBM binding intensity (ln(normalized median fluorescence intensity)); higher = stronger DNA binding
Method in brief: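 An Agilent 4 × 180k array of primer-extended double-stranded 36-bp intergenic genomic probes, with negative controls, was incubated for 1 h with GST-tagged P. falciparum DNA-binding domains expressed in E. coli. Alexa488 anti-GST antibody detected bound protein, scanned at 488 nm. Binding intensity is the highest Masliner-normalised natural-log median intensity across replicate spots of either probe orientation.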

| Sequence | gcPBM binding intensity (ln) |
| --- | --- |
| TGTTACAAAAAATAATGTACTTAATATATATATATA [XGTACX_site1016] | 8.7 |
| TATCTTCATTTTTTTGGTACGCACGCAAATATGGCT [XGTACX_site3107] | 7.32 |
| TGAATATTCATGTGTGTGCGCATGTTGTTAGACCAT [GTGCAC_site9869] | 7.51 |
| TGTTTTCTTGATTATTGTACTTTAATTAGTAATATG [XGTACX_site8674] | 7.12 |
| TAAATACATTTATGTACACACACATAGATGTATATT [CACACA_site5618] | 7 |
| AAAAATATTATAAGCACACATATATATATATATATA [CACACA_site2458] | 9.83 |
| TATAATATGTTATATACACACATTATAAAATACACA [CACACA_site6742] | 7.2 |
| TAATAATAAATAAAATGTACATATGAACAAATAAGT [XGTACX_site6710] | 7.85 |
| AAAAAAAAAATTAATTGTACTAAAAAAATATTATAT [XGTACX_site8903] | 6.98 |
| TATAAATTTTGTTTAGCACACACACCGACATACATA [CACACA_site9033] | 7.28 |
| ATGTTGTACAGACACACACACAAAAAAAAAATAAAA [CACACA_site7184] | 7.31 |
| ATATATATATATATATGTACATACATACAATCATAT [XGTACX_site6410] | 9.43 |
| CTTACATATTACATATGTACATATACACCTTATGTC [XGTACX_site4679] | 7.14 |
| TATAATAGCTTCTTTACACACACCATTTTTTTTTTT [CACACA_site1456] | 6.89 |
| ATATATTTTTAATTTGCATGTAGTAAAGCCTTAAAT [TGCATGCA_site593] | 6.87 |
| CATCAAGTGAATTGTTGTACTTTACATTGTTTTTAT [XGTACX_site7261] | 6.97 |
| TTTAATTTTTATATAACACACATATTGGAATTATGT [CACACA_site734] | 6.89 |
| TTAAATGTGAAGTGAATACACACCTAATAAATATAA [CACACA_site3194] | 6.73 |
| TTATGTATTACCTGCCGTACTTCTAAAATAATTAAA [XGTACX_site1716] | 7.49 |
| ATATATTTACTTAATACACACAAAAAAAAAAAAAAA [CACACA_site3657] | 7.03 |
| TAAAAAAGTTATATTACACACTTTATTGGTTAACTT [CACACA_site653] | 6.53 |
| ACATATAAATTATATACACACAATAATATATATATA [CACACA_site1384] | 8.84 |
| ATAATGTTTCTTTCAACACACAAAAAATGAACCCAT [CACACA_site4947] | 7.38 |

| Sequence | gcPBM binding intensity (ln) |
| --- | --- |
| TATTTATAAAAAAAATGTACATTTATGTATAAGCTA [XGTACX_site3266] | 6.99 |
| AATATCAATATTATATGTACTTATAATTTCAATGTA [XGTACX_site2423] | 6.97 |
| TAAATTTATTAATCAAGTACAAAATAAATTTTTATA [XGTACX_site2745] | 6.8 |
| TATATATAGAAACACACACACACATATATATATATA [CACACA_site4116] | 9.25 |
| AAAATTTAATATAATGCACACATAAAAAAAAAATCA [CACACA_site7882] | 7.33 |
| ATCATGTTATATATATGTACTAATAATATAATATAA [XGTACX_site1326] | 7.09 |
| ATATATATATATATATGGTAAAGTAAAAGGAAATAC [XGTACX_negctrl_site45] | 9.62 |
| TACTAACTTTTTAAAAGTACAGAACCATAACCATAA [XGTACX_site7182] | 7.04 |
| GAATAATCTAGAAACACACAAACACGACAAAAGAAA [CACACA_site4135] | 7.01 |
| AGTTTATATTATTAAAGTACATATATATATTCTTAA [XGTACX_site3164] | 7 |
| AGTCGAATGATGTACACACATACAAAACATTTATGC [CACACA_site4022] | 6.93 |
| TATATATTATAAAAGAGTACAGAAAGAAAAAAAAAT [XGTACX_site8305] | 7.47 |
| ATATTCAATATATTATGTACACATATATGAGGATAT [XGTACX_site7019] | 7.15 |
| AAACTTTTTTTAAAAACACACATATATATTTATATA [CACACA_site4092] | 6.97 |
| AGTATATTAATATAATGTACAAACGTTTATTTTGTA [XGTACX_site5980] | 6.89 |
| GTTTAAAATCTTTGCACACATATAAATAAATATATT [CACACA_site2555] | 7.6 |
| AAATATCTACATATTTGTACATATTTATACATATTT [XGTACX_site6300] | 6.93 |
| AGCAACCCCCTAGCTACACACATATAGATATAAATA [CACACA_site6577] | 7.65 |
| GAAAAGTAGACAATATGTACATATAGTATTTATAAA [XGTACX_site878] | 6.89 |
| ATATTTTCAGTTCTCCATTATGTTCCCATTATTTTT [CACACA_negctrl_site990] | 7.25 |
| CATGAATATTTTAATGTGCACATTTATCATTATATG | 8.69 |
| CCAAACTAAATGTACACACATACATAAATATAAATA [CACACA_site1141] | 7.27 |
| ATGTAATAAATATACACACACAAATATATATATATA [CACACA_site2395] | 9.5 |

| Sequence | gcPBM binding intensity (ln) |
| --- | --- |
| ACCTATGTATATTATACACACTCCAAACTATTCTTT [CACACA_site6939] | 7.25 |
| ATATTATATAACTTTTGTACGAACTATTTTATATAT [XGTACX_site6] | 6.97 |
| TTTAGAGAAGTCAAGTGTACATATAAAATAATTCAC [XGTACX_site4997] | 7.01 |
| AAAAAAAAATATATATGTACATATGTATAATAAAAA [XGTACX_site2110] | 7.08 |
| AATGAAGACTTTTTTACACACTTCATATATTATATA [CACACA_site2034] | 6.74 |
| TATTTATTTATATATGCATGCTAATAATTATAACAT [TGCATGCA_site988] | 6.98 |
| GTATAATTGGAAATTACACACCTTATAATGTAACAT [CACACA_site6091] | 6.9 |
| AATGATTTTAAAAAATGTACTTTATAAACAAAATTA [XGTACX_site3803] | 6.98 |
| TAAAGTGTCAAATTCACACACATATATATATATATA [CACACA_site1380] | 9.38 |
| TTTTTTTTTGTTAGTTGTACGTTAAATGAATTTACT [XGTACX_site7675] | 6.83 |
| TAAATTAGAATAAATACACACAAATTAGAATTCTAT [CACACA_site7781] | 6.83 |
| TAACCAAAAAAAAATATTTAAAATAAATATATATAT [CACACA_negctrl_site1516] | 8.92 |
| TATTTTCTCTTAAAAAGTACTCATATATACATTTAT [XGTACX_site7748] | 6.89 |
| TTTAGTTCATACTATGCACACTACGTATATTTTTAA [CACACA_site5484] | 7.08 |
| ATAACATACATAACAACACACAATATTTATAGGTAT [CACACA_site6243] | 7.12 |
| CGTTATATATTTTATAGTACTTTTTGTAAATTTTTT [XGTACX_site7682] | 7.14 |
| ATTAATAAGAAGAAAAGTACAAAACAAAAAGATATA [XGTACX_site7473] | 7.14 |
| TGTTCTAATATTTGTTGTACGTTTACGTTTCTCTCT [XGTACX_site18] | 6.87 |
| AACATTTTAAAATAATGTACTTGAAAAAAAAACTAC [XGTACX_site8894] | 7.12 |
| CATATAAATAAATATACATGCATACATACATATATA [TGCATGCA_site713] | 6.9 |
| TATTTAAGAGTATGAACACACATCATACCCATATAA [CACACA_site5911] | 6.79 |
| ATTTAACCAAATAATATATTTAAAAAATAGTCACAT [CACACA_negctrl_site274] | 6.96 |
| TTAATTTATGTTAATGGTACGTAAATGCATTTATTT [XGTACX_site3002] | 7.17 |

| Sequence | gcPBM binding intensity (ln) |
| --- | --- |
| TTTTATAATTTGAGAACATGCAACATAAATATAAAG [TGCATGCA_site965] | 7.48 |
| TATAATATATGAAAAAGTACAAATATTTCGATGGTC [XGTACX_site129] | 7.24 |
| TTTATTAAATATATATGTACATATCAAAATGTATAA [XGTACX_site3181] | 7.01 |
| GTTAAACATCTTCTGTGATATGTTAGAATATTATTT [CACACA_negctrl_site687] | 6.7 |
| TTTTTTTTCTATTGAGCACACATATCACGATTAGTA [CACACA_site7992] | 7.22 |
| TATTTCACAAACCTTACATGCGGTTTATTTATATAT [TGCATGCA_site123] | 6.9 |
| ATAATTTATATCATTACACACATTTTTTATATTTTT [CACACA_site3450] | 7.09 |
| TTTTTGAATGTTTGCACACAAATCTCATAATTTTAG [CACACA_site357] | 6.96 |
| TAGTTACATAAAATATGTACGTATAATTTTTTTATT [XGTACX_site3847] | 7.11 |
| TGGTATATACGACACACACACATATGTATAAATATA [CACACA_site6561] | 7.17 |
| TATTTTTAAAAGTTAACAGAAAAAATATAAATAAAT [GTGCAC_negctrl_site295] | 7.09 |
| TTTTCCCTTTTTTCCGCACACAATAAAATAAATAAA [CACACA_site2807] | 7.7 |
| TGTAATAAAATAATTAGTACACATATATGTATATTT [XGTACX_site5896] | 6.92 |
| TACCATAATCAATGCACACATAACAAAATATTATTA [CACACA_site2722] | 7.33 |
| TTTATCATGAACAGAAGTACATTTATATCAATGTCT [XGTACX_site6470] | 6.79 |
| ATATATATATAATGTTGTACGTTTTATTCTCCCATT [XGTACX_site8071] | 8.99 |
| ATATATATATATTTTACACACAATGGAGAAAAAAAT [CACACA_site644] | 8.51 |
| TTTACACTTTTTTTTGTACACACTAAAAAGATTAAC [CACACA_site3933] | 7.23 |
| TGTTGTTACCTATATACACACATATAAATATTATAG [CACACA_site7180] | 6.99 |
| AAAAAAAAAAAAAAAACACACAAGGATCAGATAGAT [CACACA_site7743] | 7.56 |
